# In PubChem BioAssay AID1745853 (National Center for Advancing Translational Sciences (NCATS), 2022):
# This is one part of the list. These are further read-outs of the screen, such as a control signal, another cell line or another target. No call is given for them.
# Key:
# Assay in all cases: Primary Screen for Target Class Profiling of Small Molecule Inhibitors of Methyltransferases
# [1] = target: Glycine N-methyltransferase (Homo sapiens) (UniProt Q14749); conditions: purified enzyme, MTase-Glo SAH luminescence; measured here: GNMT inhibition; at 40 µM; stronger effect = lower value
# Outline: (§1)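 Each enzyme was assayed with SAM and its substrate. SAH formation detected by MTase-Glo luminescence; single-point 40 uM screen[…].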
# [2] = target: Guanidinoacetate N-methyltransferase (Homo sapiens) (UniProt Q14353); conditions: purified enzyme, MTase-Glo SAH luminescence; measured here: GAMT inhibition; at 40 µM; stronger effect = lower value
# Outline: as §1
# [3] = target: Histamine N-methyltransferase (Homo sapiens) (UniProt P50135); conditions: purified enzyme, MTase-Glo SAH luminescence; measured here: HNMT inhibition; at 40 µM; stronger effect = lower value
# Outline: as §1
# [4] = target: Nicotinamide N-methyltransferase (Homo sapiens) (UniProt P40261); conditions: purified enzyme, MTase-Glo SAH luminescence; measured here: NNMT inhibition; at 40 µM; stronger effect = lower value
# Outline: as §1
# [5] = target: Phenylethanolamine N-methyltransferase (Homo sapiens) (UniProt P11086); conditions: purified enzyme, MTase-Glo SAH luminescence; measured here: PNMT inhibition; at 40 µM; stronger effect = lower value
# Outline: as §1
# % is set by controls: 0 for no effect and ±100 for the full control effect.
compound,measurement,setting,value
O=C(O)C1(c2ccccc2)CCN(S(=O)(=O)c2cccs2)CC1,"activity change, negative = inhibition",[1],-0.484%
same,"activity change, negative = inhibition",[2],-2.19%
same,"activity change, negative = inhibition",[3],3.11%
same,"activity change, negative = inhibition",[4],-0.384%
same,"activity change, negative = inhibition",[5],-8.89%
COc1c2c(cc3c1-c1c(cc4c(c1OC)OCO4)CC(C)C(C)C3)OCO2 (stereo not given),"activity change, negative = inhibition",[1],-2.29%
same,"activity change, negative = inhibition",[2],-12.5%
same,"activity change, negative = inhibition",[3],2.91%
same,"activity change, negative = inhibition",[4],-22.4%
same,"activity change, negative = inhibition",[5],-7.27%
O=C(CC1CCN(C(=O)c2cc(F)ccc2F)C1)NC1CC1 (stereo not given),"activity change, negative = inhibition",[1],-0.371%
same,"activity change, negative = inhibition",[2],1.18%
same,"activity change, negative = inhibition",[3],-0.715%
same,"activity change, negative = inhibition",[4],-2.17%
same,"activity change, negative = inhibition",[5],-0.328%
CCCn1c(=O)c2ccccc2n2c(=O)n(CC(=O)NCc3ccccc3Cl)nc12,"activity change, negative = inhibition",[1],-2.09%
same,"activity change, negative = inhibition",[2],5.83%
same,"activity change, negative = inhibition",[3],3.01%
same,"activity change, negative = inhibition",[4],-9.58%
same,"activity change, negative = inhibition",[5],-0.001%
O=C(CCc1nnc2n(Cc3ccccc3)c(=O)c3ccccc3n12)NCCc1c[nH]c2ccccc12,"activity change, negative = inhibition",[1],-2.8%
same,"activity change, negative = inhibition",[2],0.124%
same,"activity change, negative = inhibition",[3],-1.47%
same,"activity change, negative = inhibition",[4],10.7%
same,"activity change, negative = inhibition",[5],3.13%
CCCC1c2ccc(C)n2CCN1C(=O)Nc1cccc(C)c1C (stereo not given),"activity change, negative = inhibition",[1],3.79%
same,"activity change, negative = inhibition",[2],6.71%
same,"activity change, negative = inhibition",[3],2.45%
same,"activity change, negative = inhibition",[4],16.8%
same,"activity change, negative = inhibition",[5],2.16%
Cc1ccc(S(=O)(=O)c2nnn3c2nc(N2CCN(c4ccccn4)CC2)c2ccccc23)cc1,"activity change, negative = inhibition",[1],-0.062%
same,"activity change, negative = inhibition",[2],2.21%
same,"activity change, negative = inhibition",[3],-5.11%
same,"activity change, negative = inhibition",[4],-4.07%
same,"activity change, negative = inhibition",[5],-0.587%
CC(C)CCNC(=O)c1ccc2c(=O)nc3c(-c4ccccc4F)n[nH]n3c2c1,"activity change, negative = inhibition",[1],-16.2%
same,"activity change, negative = inhibition",[2],0%
same,"activity change, negative = inhibition",[3],2%
same,"activity change, negative = inhibition",[4],-0.802%
same,"activity change, negative = inhibition",[5],-2.12%
COc1ccc(-n2c(CN)n[nH]c2=O)cc1OC,"activity change, negative = inhibition",[1],-4.29%
same,"activity change, negative = inhibition",[2],-5.73%
same,"activity change, negative = inhibition",[3],-1.76%
same,"activity change, negative = inhibition",[4],-8.59%
same,"activity change, negative = inhibition",[5],-4.63%
O=C1NC2(CCN(Cc3ccccc3)C2)COc2ccccc21 (stereo not given),"activity change, negative = inhibition",[1],-6.06%
same,"activity change, negative = inhibition",[2],-2.08%
same,"activity change, negative = inhibition",[3],-4.18%
same,"activity change, negative = inhibition",[4],-15.6%
same,"activity change, negative = inhibition",[5],-2.95%
CCc1nc(NC(CCn2cncn2)c2ccccc2)c2cnn(C)c2n1 (stereo not given),"activity change, negative = inhibition",[1],-2.12%
same,"activity change, negative = inhibition",[2],-3.5%
same,"activity change, negative = inhibition",[3],-0.561%
same,"activity change, negative = inhibition",[4],-4.86%
same,"activity change, negative = inhibition",[5],-1.56%
CC(C)Cc1cc(C(=O)N2C[C@H](C3CC3)[C@@H](N)C2)n(C)n1,"activity change, negative = inhibition",[1],-0.451%
same,"activity change, negative = inhibition",[2],-5.33%
same,"activity change, negative = inhibition",[3],1.73%
same,"activity change, negative = inhibition",[4],-7.91%
same,"activity change, negative = inhibition",[5],9.41%
CCCn1c(C)cnc1CC1CCN(S(=O)(=O)CCC)CC1,"activity change, negative = inhibition",[1],-1.84%
same,"activity change, negative = inhibition",[2],-1.44%
same,"activity change, negative = inhibition",[3],-14.3%
same,"activity change, negative = inhibition",[4],-14.1%
same,"activity change, negative = inhibition",[5],-2.18%
COc1ccccc1CN1C(=O)c2cc(C(C)(C)C)nn2CC1(C)C(=O)NCc1ccccc1 (stereo not given),"activity change, negative = inhibition",[1],3.93%
same,"activity change, negative = inhibition",[2],4.38%
same,"activity change, negative = inhibition",[3],2.17%
same,"activity change, negative = inhibition",[4],-16.5%
same,"activity change, negative = inhibition",[5],-1.87%
Cc1nnnn1-c1cccc(C(=O)N2CCCC(O)(CN(C)C)CC2)c1 (stereo not given),"activity change, negative = inhibition",[1],0.477%
same,"activity change, negative = inhibition",[2],-2.08%
same,"activity change, negative = inhibition",[3],-7.73%
same,"activity change, negative = inhibition",[4],-5.31%
same,"activity change, negative = inhibition",[5],-3.31%
